Results on 109 sequences are retold here after the supplement of paper PMC3334620.

Over roughly 33,000 sequences, “E-score (-0.5 to 0.5)” has its median near -0.054; the highest 2% begin near 0.39. Some of the results follow.

This experiment addresses Ylr278c (UniProt Q05854). In words: PBM E-score (8-mer binding enrichment) (E-score (-0.5 to 0.5)); higher = stronger / more preferred TF binding; most listed sequences are background and not binding sites. The following applies: protein concentration: 200 nM; construct: GST-DNA-binding domain. A digest of the protocol: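 Detection of bound protein used fluorescent anti-GST, with scans normalised by masliner. The proteins were GST-tagged yeast transcription factors applied at about 100-200 nM to universal all-10-mer Agilent arrays made double-stranded by primer extension. Each ungapped eight-base word, pooled with its reverse complement, was scored with an E-score from the Universal PBM Analysis Suite.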
As for GCTTTGAA, the “PBM E-score” value was -0.211.

With TGATCCCA, the “PBM E-score” value was -0.12. The result for AAAAGCCA reads 0.0629; that for CCCGCAGG, 0.207; that for TAGTACAA, -0.125. With CCCGTGAG, the “PBM E-score” value stood at 0.112. For CACTTCTA the value was -0.111; for CTGATCAC, -0.133; for AAGAACGA, 0.065. The result for CATCGGGG reads 0.314; that for AAAGGCTG, -0.205; that for CGCACTTA, 0.135.

As for TCGGTACA, the “PBM E-score” value came out at 0.103. For ACGTCAGG the value was -0.236; for AGGTCCTA, -0.146; for GCTTGGTA, -0.261. The result for CATGGTAC reads -0.00515; that for GGATGGGA, 0.0151; that for GTGCTGGA, -0.205. For CAGGCACA, the “PBM E-score” value was -0.121. In the case of CTAGATGA, the “PBM E-score” value was -0.241. For AGAGGTGC the value was 0.0557; for GAGGTTTA, 0.0695. GTAATAAC: the “PBM E-score” value is -0.14. The result for ACGCTAAC reads -0.188. For GCGACCGC the value was 0.0978. For ATGCCGGC the value was 0.372; for GCAAGATA, -0.196; for CCTGTGGA, -0.344. GTAGCAGA: the “PBM E-score” value was -0.132. The result for CCCCCAAC reads -0.256. The result for ACCCCGCG reads 0.347; that for AAGGAAGC, -0.162; that for TAGAACCA, -0.14. For GACGCCAC the value was -0.0895; for ATCGGACC, 0.412. As to AAGCGTTA, the “PBM E-score” value is -0.16. Take ATTTAGAG: the “PBM E-score” value is -0.0895.

As for GCCCTTCC, the “PBM E-score” value is -0.0379. For CAATTTGC the value was -0.159; for ACCTCAGT, -0.183. The result for AGTGAGTC reads -0.0789.

With CCTCAAAG, the “PBM E-score” value was -0.271. For AGCAGTGA the value was 0.161; for AGGGTCGA, -0.00353; for AACTGTCT, -0.119. For CCGTTTAG the value was 0.12; for ATGGTGGA, -0.244; for GCTGGTCA, -0.281. As to ATATGCAG, the “PBM E-score” value was -0.177.

Take ACGGTGAC: the “PBM E-score” value was -0.0149. For ATCGACAC the value was -0.273. For CTTCACAA the value was -0.204. For ACAATGAG the value was -0.082.

With CCACGCTC, the “PBM E-score” value was -0.139. For GCGAAGTA the value was 0.0791; for ACCGGGGC, 0.367. For CACGGTGG the value was -0.0685; for AAGCGGAC, 0.335. The result for ATTCGCTG reads -0.00731; that for AACCGCTT, -0.0982; that for ATCGGGAG, 0.192. On to GACCGCGC, for which the “PBM E-score” value is 0.171. Turning to CGAGAAAC, the “PBM E-score” value was found to be 0.107. On to ACCAATCA, for which the “PBM E-score” value was -0.0153. For GTCTTTCA the value was -0.183; for ACGTTTGC, -0.0764.

Take ACAGACAT: the “PBM E-score” value was -0.116.

Consider TACCATGA, for which the “PBM E-score” value was -0.231.

Turning to AGGGCCCG, the “PBM E-score” value amounted to 0.152. For CTGATAAG the value was -0.165.

As for CAATTAGC, the “PBM E-score” value turned out to be 0.0532. For CCGTCATA the value was 0.206. For ACACTTTA the value was -0.0751; for ACGTCGAT, -0.117; for ACTAACTC, -0.0256. In the case of ACTTGTCT, the “PBM E-score” value was -0.108. The result for AGACGGGA reads 0.0938; that for ATTCTCCA, -0.052; that for CCCCCACA, -0.361.

Regarding CCACGCCC, the “PBM E-score” value worked out at 0.0633. For CTGCCGAC the value was 0.15; for ACATAAAA, -0.214; for AAATCAGA, -0.1. The result for CCCCGGAA reads 0.406. With CAACCTGG, the “PBM E-score” value is -0.0289. For ATCTTTCG the value was 0.00101; for AACAGTGG, -0.0967. The result for CCTACCCC reads 0.249; that for GATAGTAC, -0.131; that for CGTCACTC, 0.13. For TCACGCAA the value was 0.0644. For AGGGGCTA, the “PBM E-score” value is -0.0775. The result for CGTGCCAA reads -0.0693; that for AGTGGTGG, -0.158.

In the case of GAGCTGTA, the “PBM E-score” value was -0.156.

On to CCCTGTTA, for which the “PBM E-score” value is -0.0341. The result for GGCGGCAC reads 0.191; that for CATGTGCG, 0.0683; that for AAATAAAT, 0.0127. The result for TATAGATA reads -0.159; that for CTGGGTCA, -0.205; that for ATTCAACG, 0.0851. For ATTGTAAA the value was -0.0131.

For the sequence ACCTATAC, the “PBM E-score” value is -0.275. For ATGGACTC the value was -0.0683; for GGCCTGCA, -0.0835. For ATACTTAG the value was -0.186; for AGTTTTCG, 0.0339.
